Laboratory results taken from ChEMBL document CHEMBL4888484, “Replenishing the malaria drug discovery pipeline: Screening and hit evaluation of the MMV Hit Generation Library 1 (HGL1) against asexual blood stage Plasmodium falciparum ,using a nano luciferase reporter read-out” (2022).
Out of some 150,000 compounds screened, about 540 (0.36%) showed an effect of 50% or more. The list shows a part of the results.

These molecules were tested on Plasmodium falciparum (assay: Primary screen in NF54 nanoGlo assay, in single point, at 2uM, 72h; a lower Z score goes with more inhibition). Details: timepoint 72 hour.
Type: functional, Erythrocyte
For `COCC(=O)N1CCC(COc2ncnc(C)c2C)CC1`, the “% Inhibition” value was -11% and the Z score was 1.23.
With `C[C@H](NC(=O)NCc1ncnn1C)c1cc(F)c(F)c(F)c1` the “% Inhibition” value was -5% and the Z score was 0.74.
In the case of `Cc1ccn(CCC(=O)NCc2ccc3c(c2)OCO3)n1`, the “% Inhibition” value is reported as -2% and the Z score is reported as 0.19.
In the case of `OCC1CN(c2nc3cc(F)ccc3o2)C1`, the “% Inhibition” value is reported as -11% and the Z score is reported as 0.92.
In the case of `Cc1cccc(-n2cnc3cc(C(=O)N4CCO[C@H](C)[C@H]4C(N)=O)ccc32)c1`, the “% Inhibition” value is reported as 4% and the Z score is reported as -0.61.
With `CCOCCn1c(=O)n(Cc2cn(C)nc2C)c2cc(C(=O)OC)cnc21` the “% Inhibition” value was -10% and the Z score was 1.55.
`CCCN(CC(=O)NC)S(=O)(=O)c1c(Cl)cc(C)c(O)c1C` was tested, and the “% Inhibition” value was -9% and the Z score was 1.7.
With `COc1ccc(-c2ccc(N3CCCN(C(=O)CN(C(=O)c4cccc(OC)c4)C(C)C)CC3)nn2)cc1` the “% Inhibition” value was 10% and the Z score was -1.38.
In the case of `Cc1ccc(OCCC(=O)N2CCC[C@H]2c2ccon2)cc1C`, the “% Inhibition” value is reported as -10% and the Z score is reported as 1.34.
`CCN(Cc1ccc(C)o1)Cc1[nH]cc(C)c(=O)c1C` was tested, and the “% Inhibition” value was -13% and the Z score was 1.38.
`CCc1ccc([C@@H]2COCCN2c2c(C#N)c(=O)n(C)c(=O)n2C)o1` was tested, and the “% Inhibition” value was -1% and the Z score was 0.08.
`COc1cc(NC(=O)C(c2ccccc2)c2ccccc2)ccc1NC(=O)c1ccccc1Cl` was tested, and the “% Inhibition” value was -10% and the Z score was 1.26.
In the case of `CC1(C)CCC(Nc2ccc(C(N)=O)nn2)CC1`, the “% Inhibition” value is reported as 77% and the Z score is reported as -11.08.
`CCNc1ncc(C(=O)N2CCCN(C(=O)[C@@H]3CCCO3)CC2)cn1` was tested, and the “% Inhibition” value was -2% and the Z score was 0.4.
`COc1cccc(C(C)NCC2CN(C(=O)c3ccccc3)C3CCN2C3)c1` (stereo not given) was tested, and the “% Inhibition” value was -7% and the Z score was 0.75.
For `O=C(C1CCN(c2cnc3nccnc3c2)CC1)N1CCC(Cc2ccccc2)CC1`, the “% Inhibition” value was 6% and the Z score was -1.08.
For `CN1CCC[C@@H]1CCn1ccnc1C1CCCCC1`, the “% Inhibition” value was 7% and the Z score was -0.97.
`CN(C)S(=O)(=O)N1C[C@H]2CC[C@@H](C1)N(C(=O)c1ccc(F)c(F)c1)C2` was tested, and the “% Inhibition” value was -2% and the Z score was 0.44.
`CCc1nc(-c2cccc(NC(=O)CCC3CCCC3)c2)no1` was tested, and the “% Inhibition” value was -9% and the Z score was 1.53.
For `Cc1cccc(NC(=O)c2scc(-c3ccc(F)cc3)c2S(=O)(=O)N(C)c2cccc(F)c2)c1`, the “% Inhibition” value was -14% and the Z score was 1.55.
`COc1cccc(C(=O)Nc2cc(-c3cccnc3)no2)c1` was tested, and the “% Inhibition” value was -26% and the Z score was 2.55.
With `CCOC(=O)N1CCc2c(sc(NCc3c[nH]c4ccccc34)c2C(=O)Nc2ccccc2OCC)C1` the “% Inhibition” value was 3% and the Z score was -0.55.
With `O=C(Nc1ccc(Cl)c(Cl)c1)c1ncccn1` the “% Inhibition” value was -21% and the Z score was 3.08.
In the case of `CCc1c(C(=O)N2CCNC[C@H](CC(=O)O)C2)csc1C`, the “% Inhibition” value is reported as -11% and the Z score is reported as 1.45.
With `NC1CC(NCCc2cccc3cccnc23)c2ccccc21` (stereo not given) the “% Inhibition” value was 38% and the Z score was -7.33.
For `CN(Cc1ccc(-n2cccn2)cc1)C(=O)N[C@H]1C[C@H]2C(=O)NCC(=O)N2C1`, the “% Inhibition” value was -18% and the Z score was 2.41.
`CCN(CC)C(=O)CCc1c(C)nn(-c2ccccc2C)c1Oc1cccc(C)c1` was tested, and the “% Inhibition” value was -4% and the Z score was 0.59.
`O=C(NCc1ccc(F)c(Cn2ccnc2)c1)N1CCC(O)CC1` was tested, and the “% Inhibition” value was -17% and the Z score was 2.35.
In the case of `CN(CC1(CO)CCC1)C(=O)CCC(F)(F)F`, the “% Inhibition” value is reported as -9% and the Z score is reported as 1.41.
For `O=C(Nc1cccc2c1CCCC2)N(CCO)Cc1nccs1`, the “% Inhibition” value was 1% and the Z score was -0.22.
In the case of `Cc1ccc(OCC(=O)OCCN2CCCC2=O)cc1C`, the “% Inhibition” value is reported as -11% and the Z score is reported as 0.93.
In the case of `C[C@@H]1CN(C(=O)NCCN2C(=O)Cc3ccccc32)C[C@H](C)O1`, the “% Inhibition” value is reported as -12% and the Z score is reported as 2.12.
For `C[C@H]1C(=O)Nc2ccccc2CN1C(=O)Nc1cnn(CC2CC2)c1`, the “% Inhibition” value was -9% and the Z score was 1.82.
With `O=C(c1ccc2nnnn2c1)N1CCN(c2ccc3[nH]ncc3c2)C(=O)C1` the “% Inhibition” value was -3% and the Z score was 0.65.
With `Cc1ccccc1OC1(C(=O)O)CCN(C(=O)[C@H]2CC23CCC3)CC1` the “% Inhibition” value was 2% and the Z score was -0.32.
`COc1ccc(OCC(=O)NCCn2cc(C(=O)Nc3cccc(OC)c3)nn2)cc1` was tested, and the “% Inhibition” value was -17% and the Z score was 2.39.
`Cc1nccc(-c2ccccc2)c1C(=O)N1C[C@H]2C[C@H](O)[C@H](O)C[C@H]2C1` was tested, and the “% Inhibition” value was 1% and the Z score was -0.27.
With `O=C(NCc1ccc(-c2ccoc2)o1)C1CCCC1` the “% Inhibition” value was 11% and the Z score was -1.57.
`CC(C#N)CNC(=O)C1CCCC1C(=O)NCC(C)C#N` (stereo not given) was tested, and the “% Inhibition” value was 3% and the Z score was -0.48.
`Cc1ccc(-n2nnc(-c3nc(C)c(C(=O)NCc4ccccc4)s3)c2C)cc1` was tested, and the “% Inhibition” value was -7% and the Z score was 1.23.
`Cn1cc(C(=O)N2N=CC[C@]2(O)C(F)(F)F)cn1` was tested, and the “% Inhibition” value was 45% and the Z score was -6.51.
For `CC1C(Cc2ccccc2)CCN1C(=O)C1(S(C)(=O)=O)CCC1` (stereo not given), the “% Inhibition” value was 0% and the Z score was 0.03.
For `O=C(NCC1(c2c(F)cccc2F)CCCC1)c1ccc(=O)[nH]n1`, the “% Inhibition” value was 3% and the Z score was -0.54.
In the case of `CC[C@H]1COCCN1C(=O)c1n[nH]c(N)c1Cl`, the “% Inhibition” value is reported as 5% and the Z score is reported as -0.66.
For `Cc1cccc2c1nc1n2[C@@H](CNC(=O)Nc2ccccc2)COC1`, the “% Inhibition” value was 14% and the Z score was -1.62.
For `COC(C(=O)OC(C)C(=O)N(C)C)c1ccccc1` (stereo not given), the “% Inhibition” value was -3% and the Z score was 0.25.
In the case of `CN(C)S(=O)(=O)CCCN1CCCC[C@@H]1CCc1ccccn1`, the “% Inhibition” value is reported as 1% and the Z score is reported as -0.13.
For `CC(C(=O)NC1CCC(=O)N(C)C1)c1ccccc1` (stereo not given), the “% Inhibition” value was -11% and the Z score was 1.63.
For `O=C(c1ccsc1)N1CC[C@H](Oc2cc(C(F)(F)F)ccn2)C1`, the “% Inhibition” value was -5% and the Z score was 0.91.
In the case of `CCCCCOCC(=O)N1CC[C@H](c2ncc[nH]2)C1`, the “% Inhibition” value is reported as -5% and the Z score is reported as 0.56.
With `Cc1ncsc1CN1CCCCCCCC1=O` the “% Inhibition” value was 2% and the Z score was -0.3.
For `O=S(=O)(Nc1ccc(F)cc1)c1ccc2c(c1)-c1oncc1CO2`, the “% Inhibition” value was -11% and the Z score was 1.6.
In the case of `COCc1nc(CNc2nc3c(s2)c(C)nn3C)no1`, the “% Inhibition” value is reported as -13% and the Z score is reported as 2.25.
In the case of `CCC1(CC)CN(CC[C@H]2CCOC2)CCO1`, the “% Inhibition” value is reported as -5% and the Z score is reported as 0.43.
`Cc1occc1C(=O)Nc1cccc2ncccc12` was tested, and the “% Inhibition” value was -8% and the Z score was 1.13.
